Measured values as given in PubChem BioAssay (NCI).
“And” between values parts separate entries of the source, which are not always exact repeats. Identical values can stand only once.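 All cell lines were grown in 96-well plates and treated with compound for 48 hours. Here, GI50 denotes the concentration required for 50% inhibition of growth. TGI: total growth inhibition.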

What follows are molecules tested on NCI-H322M lung (assay: inhibition of tumour cell growth, NCI panel, 48 h).

| SMILES | TGI | GI50 |
| --- | --- | --- |
| CSC(CC(=O)O)C(=O)O (stereo unspecified) | > 100 µM |  |
| CCc1n(Cc2ccc3ccccc3n2)cc[n+]1Cc1ccc2ccccc2n1 | 41.9 µM | 6.33 µM |
| CCNc1ccc2c(c1)Cc1ccccc1-2 | > 100 µM |  |
| Cc1cc(=O)n2nc(SCc3ccccc3)sc2n1 | > 100 µM |  |
| Cc1cc(C)c(P2C(=C(O[Si](C(C)C)(C(C)C)C(C)C)C(C)(C)C)C2(c2ccccc2)c2ccccc2)c(C)c1 (stereo unspecified) | > 100 µM |  |
| COc1nc2c(c(=O)n1C)N[C@H]1[C@H](OC(C)=O)[C@@H](OC(C)=O)CO[C@H]1N2 | > 100 µM |  |
| CO/C(=N\N=C\c1cccc(Cl)c1)c1ccncc1 | > 10 µM |  |
| C/C(=N\NC(=S)N1CCCCC1)c1cccc(C)n1 | 5.53 µM |  |
| CCCCCCCNc1nc(C(=O)OCC)ncc1-c1ccc(C(F)(F)F)cc1 | > 100 µM | 24.7 µM |
| Cc1ccc(C2=NOC(=O)[C@@H]3CCCC[C@@H]23)cc1 | > 100 µM |  |
| O=Cc1ccccc1OCCOc1cc(OCCOc2ccccc2C=O)c(OCCOc2ccccc2C=O)cc1OCCOc1ccccc1C=O | > 100 µM |  |
| O=C(c1ccccc1)C1CCCCN1C(=O)c1ccccc1 (stereo unspecified) | > 100 µM |  |
| C/C(=C\c1ccccn1)c1ccccn1 | > 100 µM |  |
| Oc1ccc(C(c2ccc(O)cc2)c2ccc(Cl)cn2)cc1 | 0.456 µM | 0.0964 µM |
| COc1ccccc1N=C(N)N/N=C/c1c[nH]c2ccccc12 | 22.5 µM |  |
| O=C(Nc1ccc(F)cc1)c1ccc(NC2=C(Cl)C(=O)N(Cc3ccccc3)C2=O)cc1 | 39.3 µM | 13.7 µM |
| Cc1ccc(S(=O)(=O)NCCNC2=CC(=O)c3nc4ccccc4c4ccnc2c34)cc1 | 39.2 µM | 16 µM |
| Cc1ccccc1-n1c(C)nc2c1C(=O)c1ccccc1C2=O | > 100 µM |  |
| COC1=CC(=O)C2C(C1=O)[C@@H]1c3ccccc3C[C@H]21 (stereo partly specified) | > 100 µM |  |
| CC(=O)OCC1OC(n2c3c(c(-c4cccc5ccccc45)c(C#N)c2=S)CCCC3)C(OC(C)=O)C(OC(C)=O)C1OC(C)=O (stereo unspecified) | > 100 µM |  |
| C=C1SC(=Nc2c(C)cc(C)cc2C)N(C(=O)c2sc3ccccc3c2Cl)C12CCCCC2 | > 100 µM | > 100 µM |
| COc1nc(N(C)C)nc2c1n(C)c[n+]2C | > 100 µM |  |
| CC(=O)Nc1ccc(C(=O)NN2C(=O)C(Cl)C2c2ccc([N+](=O)[O-])cc2)cc1 (stereo unspecified) | > 100 µM |  |
| COc1cc(/C=C\c2ccccc2)cc(OC)c1OC | > 100 µM |  |

| SMILES | TGI | GI50 |
| --- | --- | --- |
| CS(=O)(=O)OCCN1CCN(C(=O)c2cccc3c(Nc4ccc(S(=O)(=O)N=C(N)N)cc4)c4ccccc4nc23)CC1 | > 100 µM |  |
| COc1ccc(Nc2ncc(Br)c(NCCCNC(=O)C3CCC3)n2)cc1 | 51.5 µM | 16.5 µM |
| COc1ccc2c(c1)C(=O)c1c-2n(CCCN=[N+]=[N-])c(=O)c2cc(N(C)C)ccc12 | > 100 µM | > 100 µM |
| CCOC(=O)C(NC(=O)N(C1=NCC(C)S1)C1CCCCC1)(OC)C(F)(F)F (stereo unspecified) | > 100 µM |  |
| COc1cc(CCN)c2c(c1OC)SSSSS2 | 4.12 µM | 1.49 µM |
| C[C@@H](O)C(=O)N1[C@@H]2CC3CC[C@]2(CS1(=O)=O)C3(C)C | > 100 µM |  |
| Cc1cccc2c1[nH]c1[nH]c(=O)[nH]c(=O)c12 | > 100 µM |  |
| O=c1[nH]c(=O)n([C@@H]2C[C@H](CO)[C@H](O)C2)cc1/C=C/Br | > 100 µM |  |
| CC1OC(OCC2OC(Oc3c(-c4ccc(O)cc4)oc4cc(O)cc(O)c4c3=O)C(OC3OC(C)C(O)C(O)C3O)C(O)C2O)C(O)C(O)C1O (stereo unspecified) | > 100 µM |  |
| CCCCS(=O)CCC(N)C(=O)O (stereo unspecified) | > 100 µM |  |
| CC1CC#CCOC(=O)CCCC1=O (stereo unspecified) | > 100 µM |  |
| [Cl][Pt+2][Cl].[NH-]C1CCCCC1[NH-] (stereo unspecified) | > 100 µM | 15.7 µM and 36.2 µM and 10.8 µM |
| CC1(C)CC[C@H](Nc2ncc(C(F)(F)F)c(-c3c[nH]c4c(P(C)(C)=O)c(C#N)ccc34)n2)CN1 | 16.1 µM | 0.274 µM |
| COc1cc2nc(-c3ccc4ccccc4c3)[nH]c(=O)c2cc1OC | > 100 µM |  |
| CC[N+](C)(CC)CCC(O)(c1ccccc1)c1ccccc1 | > 100 µM |  |
| COc1cc(/C=C2\CCC/C(=C\c3cc(OC)c(O)c(OC)c3)C2=O)cc(OC)c1O | 75 µM and > 100 µM | 6.37 µM |
| Clc1ccc(Cc2nc3ccccc3s2)c(Cl)c1 | 41.7 µM |  |
| CCCNCCCC(NC(C)=O)C(=O)NCc1ccccc1 (stereo unspecified) | > 100 µM |  |
| COc1cc2c(c(OC)c1OC)-c1ccc(N)c(=O)cc1[C@@H](NC(C)=O)CC2 | > 100 µM | 0.053 µM |
| CC1CC2CC(=O)CC3(C1)C2CCCN3CCCO (stereo unspecified) | > 100 µM |  |
| CCOC(=O)/C(O)=C/c1cc(OC)cc(=O)o1 | > 100 µM |  |
| N=c1oc2ccc3ccccc3c2cc1C(N)=O | > 100 µM |  |
| NC1CCCCC1.[O]=[Ge].[O]=[Ge].[O]=[Ge][OH].[O]=[Ge][OH] | > 100 µM |  |
| O=C1CCC2(CCO1)OCCO2 | > 100 µM |  |

| SMILES | TGI | GI50 |
| --- | --- | --- |
| CCCC(=O)Nc1cc(C(=O)N2C[C@@H]3C[C@]34C2=CC(=O)c2[nH]cc(C)c24)n(COC)c1 | 34.8 µM and 63.9 µM | 7.47 µM |
| OCC1OC(n2cnc3cncnc32)C(O)C1O (stereo unspecified) | 5.39 µM |  |
| COc1ccc(NC(=O)C(=O)Cc2nc3ccc([N+](=O)[O-])cc3[nH]c2=O)c(OC)c1 | > 100 µM |  |
| Cn1nc2n(c1=O)CCCN2 | > 100 µM |  |
| Cc1ccncc1.F[B-](F)(F)F.[Pt+2].c1ccc(-c2cccc(-c3ccccn3)n2)nc1 | 20.4 µM |  |
| C[C@H](NC(=O)[C@@H]1CSSC[C@@H](NC(=O)c2nc3ccccc3cc2O)C(=O)NCC(=O)N1C)c1ccccc1 | 19.8 µM | 6.99 µM |
| CN(C)/N=C/c1cn(C)c(=O)n(C)c1=O | > 100 µM |  |
| NC(=S)N/N=C\c1ccc(OCc2cccc(COc3ccc(/C=N/NC(N)=S)cc3)n2)cc1 | 57.1 µM |  |
| O=C1c2ccc([N+](=O)[O-])cc2-c2c1c1ccccc1c(=O)n2CCCNCCCNCCCn1c2c(c3ccc([N+](=O)[O-])cc3c1=O)C(=O)c1ccccc1-2 | 23 µM | 6.04 µM |
| C1C[OH+]CC[OH+]CCNCC[OH+]CC[OH+]CCN1.[Cl-].[Pt+4] | > 100 µM | > 100 µM |
| CC(C)=CCC/C(C)=C/CC/C(C)=C/Cc1c(O)c2ccccc2oc1=O | > 100 µM |  |
| Cc1ccc(C(=O)O)c(CC2Cc3c(C)cccc3C2=O)c1 (stereo unspecified) | > 100 µM |  |
| O=C(O)C1C2CCC(O2)C1C(=O)N1CCCCC1 (stereo unspecified) | 77.3 µM |  |
| C=CCN(/C=C1/C(=O)O[C@H](COC)[C@@]2(C)C1=C(O)C(=O)C1=C2[C@H](OC(C)=O)C[C@]2(C)C(=O)CC[C@@H]12)CC=C | > 10 µM | 0.389 µM |
| COC(=O)[C@H]1[C@@H](C(C)C)O[C@@H](C(C)C)O[C@H]1C(F)(F)F | > 100 µM |  |
| O=C1C=CC(=O)C(CNc2ccc(C(=O)OC34CC5CC(CC(C5)C3)C4)cc2)=C1 | 40.9 µM |  |
| COc1ccc(/C=c2\[nH]c3nc(=O)c(N4CCOCC4)c(N)n3c2=O)cc1 | > 100 µM |  |
| O=Nc1c(-c2c(O)[nH]c3ccc([N+](=O)[O-])cc23)[nH]c2ccc(O)cc12 | > 95.7 µM | 0.454 µM |
| O=[N+]([O-])c1ccc2nc(-c3ccccn3)c(-c3ccccn3)nc2c1 | > 100 µM |  |
| O=C(O)COc1ccc(O)c2c1C(=O)CCCC2=O | > 100 µM |  |
| CC[N+]1(C)CCC(O)(/C=C/c2ccc(OC)cc2)C(C(=O)/C=C/c2ccc(OC)cc2)C1 (stereo unspecified) | 35.1 µM |  |
| CC1(C)OCC(C(O)C2OC(C)(C)OC2C=O)O1 (stereo unspecified) | > 100 µM |  |
| COc1cc2c(cc1OCCCC(=O)Nc1cc(C(=O)Nc3cc(C(=O)Nc4cc(C(=O)NCCCN(C)C)n(C)n4)n(C)n3)n(C)n1)N=CC1CCCN1C2=O (stereo unspecified) | 53.5 µM |  |
| CCCCc1cc2c(C)cc(=O)oc2c(O)c1O | > 100 µM |  |
